Results from PubChem BioAssay AID686979 (National Center for Advancing Translational Sciences (NCATS), 2013).
Out of some 420,000 compounds screened, about 50,000 (12%) were called active. About 26% were inconclusive and are not listed. Calls follow the shape of the dose curve; as a rule, active = well fitted inhibition curve with a large enough effect; inconclusive = small, poorly fitted or top-dose-only effect; inactive = flat fitted curve, though single readings scatter. This is a selection; strong and weak results do not stand in their true shares. A structure can be active in one record and inactive in another.
% is scaled to controls: 0 for no effect and ±100 for the full control effect; potency is read from the fitted curve at half-maximal effect.

Experiment: qHTS for Inhibitors of human tyrosyl-DNA phosphodiesterase 1 (TDP1): qHTS in cells in presence of CPT; also: nearly all actives have a fitted effect of over 55% in size
Details: chicken DT40 Tdp1-/-;hTDP1 cells + 20 nM CPT, ATP luminescence, 48 h; series mostly up to 46.2 µM; activity change, negative = growth inhibition: at the top concentration
Procedure, shortened: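 Chicken DT40 Tdp1-/- cells complemented with human TDP1, 400 cells/well, exposed to compounds plus 20 nM camptothecin for at least 48 h at 37 C; viability read as ATP content by CellTiter-Glo luminescence.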
In the case of `CCCS(=O)(=O)N1CCN(C2Cc3ccccc3C2)CC1`, the “activity change, negative = growth inhibition” value is reported as inactive: 3.04%.
For `CCOc1ccc(C(=O)Nc2ccc3nc(SCC(=O)N(C)c4ccccc4)sc3c2)cc1`, the Potency was active: 2.06 µM.
For `CCc1ccc(NC(=O)N(Cc2cn(CC)c3ccccc23)C2CCCCC2)cc1`, the Potency was active: 7.31 µM.
With `COc1cc2[nH]c(C)c(-c3ccccc3)c(=O)c2cc1Cl` the “activity change, negative = growth inhibition” value was inactive: -3.77%.
In the case of `CC1(C)CCCC2=C1CC1C(=O)N(N)C(=O)C1C2` (stereo not drawn), the “activity change, negative = growth inhibition” value is reported as inactive: 33.9%.
In the case of `C[C@]12CC[C@@H]3c4ccc(O)cc4CC[C@H]3[C@@H]1CC[C@@H]2O`, the “activity change, negative = growth inhibition” value is reported as inactive: -22.8%.
With `CC1CC2C3CCC4=CC(=O)C=CC4(C)C3(F)C(O)CC2(C)C1(O)C(=O)CO` (stereo not drawn) the “activity change, negative = growth inhibition” value was inactive: -23.2%.
With `Cn1cc(NC(=O)c2cc(NC(=O)c3cc(NC=O)cn3C)cn2C)cc1C(=O)NCCC(=N)N` the “activity change, negative = growth inhibition” value was inactive: 20.9%.
For `CCN(CC)CCCNc1nc2cc(OC)c(OC)cc2c2nc(-c3cccnc3)nn12`, the Potency was active: 14.6 µM.
With `CC1=C(CC(=O)O)c2cc(F)ccc2/C1=C\c1ccc(S(C)=O)cc1` (stereo not drawn) the Potency was “inactive”.
For `COc1ccccc1NC(=S)NC1CCC(CC2CCC(NC(=S)Nc3ccccc3OC)CC2)CC1` (stereo not drawn), the Potency was active: 10.3 µM.
With `CCCc1cc(=O)[nH]c(=S)[nH]1` the Potency was “inactive”.
For `CN(C)S(=O)(=O)c1ccc(C(=O)Oc2ccccc2)cc1`, the “activity change, negative = growth inhibition” value was inactive: 39.4%.
With `COc1cc(C(=O)NCCCc2nc3ccccc3n2CC(C)C)cc(OC)c1OC` the Potency was active: 20.6 µM.
In the case of `O=C(O)c1cccc(S(=O)(=O)N2CCN(c3ccccn3)CC2)c1`, the “activity change, negative = growth inhibition” value is reported as inactive: 31.5%.
With `CCN(CC)c1nc(SCCOC(=O)Nc2ccccc2)nc(N(CC)CC)n1` the Potency was active: 18.4 µM.
With `COc1ccccc1C(=O)N/C(=C\c1ccc(Br)cc1)C(=O)N1CCCC1` the “activity change, negative = growth inhibition” value was inactive: -29.7%.
For `O=C(CNC(=O)c1cccs1)OCc1c(F)cccc1Cl`, the “activity change, negative = growth inhibition” value was inactive: 30%.
With `COc1ccc(N2C(=S)NC3CS(=O)(=O)CC32)cc1` (stereo not drawn) the “activity change, negative = growth inhibition” value was inactive: 30.2%.
In the case of `COc1ccc(N2CCN(C(=O)c3nn(C)c4c3CS(=O)(=O)c3ccccc3-4)CC2)cc1`, the “activity change, negative = growth inhibition” value is reported as inactive: -2.2%.
With `O=C(O)c1ccc(NCc2nc3ccccc3n2CCOc2ccccc2Cl)cc1` the “activity change, negative = growth inhibition” value was inactive: 2.89%.
For `Cc1ccc(N2CC(C(=O)NCCS(=O)(=O)N3CCN(c4ccccc4F)CC3)CC2=O)cc1` (stereo not drawn), the “activity change, negative = growth inhibition” value was inactive: 12.4%.
With `Cc1cccc(CSc2nc3c(c(=O)[nH]2)CCC3)c1` the “activity change, negative = growth inhibition” value was inactive: -27.7%.
For `COc1c(O)cc2c(c1O)C1OC(CO)C(O)C(O)C1OC2=O` (stereo not drawn), the “activity change, negative = growth inhibition” value was inactive: 11.3%.
In the case of `COc1ccccc1/C=C\C=N\NC(=O)CCn1nnc2ccccc21`, the “activity change, negative = growth inhibition” value is reported as inactive: -22.3%.
With `COc1cc(-c2noc(C)c2C#CC2(O)CCCCC2)cc(OC)c1OC` the “activity change, negative = growth inhibition” value was inactive: -109%.
For `c1ccc2c(C[C@@H]3CNCCN3CCC34CC5CC(CC(C5)C3)C4)cccc2c1`, the Potency was active: 18.4 µM.
In the case of `O=C(O)c1cc(O)c2c(c1)C(=O)c1cccc(O)c1C2=O`, the “activity change, negative = growth inhibition” value is reported as inactive: -11.4%.
For `CC(C)C[C@H]1CN(CCCC[C@H]2CNC(=O)C(=O)N2Cc2ccccc2)C(=O)C(=O)N1CCc1ccccc1`, the “activity change, negative = growth inhibition” value was inactive: -0.765%.
In the case of `Cc1oc(-c2cccc(Cl)c2)nc1CSCC(=O)O`, the Potency is reported as active: 16.4 µM.
For `CCOC(=O)[C@H](CCc1ccccc1)N[C@@H](C)C(=O)N1Cc2ccccc2C[C@H]1C(=O)O`, the “activity change, negative = growth inhibition” value was inactive: -9.56%.
In the case of `CC(CCc1ccccc1)NCC(O)c1ccc(O)c(C(N)=O)c1` (stereo not drawn), the Potency is reported as “inactive”.
For `COc1cccc(-c2ccnc3[nH]n(-c4ccccc4)c(=O)c23)c1`, the “activity change, negative = growth inhibition” value was inactive: -11.1%.
In the case of `CCCCCC[C@@H]([C@@H](C)O)n1cnc2c(N)ncnc21`, the Potency is reported as “inactive”.
With `Cc1cc(C)nc(NC(=O)CSc2nccc(C)n2)n1` the “activity change, negative = growth inhibition” value was inactive: -2.86%.
In the case of `O=S(=O)(c1ccc(N2CCN(Cc3ccccc3)CC2)nc1)N1CCCC1`, the Potency is reported as active: 16.4 µM.
With `O=C(C1=C[C@@H](c2ccc(C(F)(F)F)cc2)C[C@@H](OCc2ccc(CO)cc2)O1)N1CCOCC1` the “activity change, negative = growth inhibition” value was inactive: -9.47%.
With `Cc1ccc(C(=O)NCC(c2ccc3c(c2)OCO3)N2CCOCC2)cc1C` (stereo not drawn) the Potency was active: 20.6 µM.
In the case of `O=S1(=O)[C@H]2C[C@@H]3C=C[C@@]2(CN1Cc1cccc(Cl)c1)O3`, the “activity change, negative = growth inhibition” value is reported as inactive: 7.44%.
With `Cc1ccc(N2CCN(C(=O)N3CCOCC3)CC2)cc1C` the “activity change, negative = growth inhibition” value was inactive: 6.24%.
For `COc1ccc([C@@H]2CC(=O)c3c(O)cc(O[C@@H]4OC(CO[C@@H]5OC(C)[C@H](O)[C@@H](O)[C@H]5O)[C@@H](O)[C@H](O)[C@H]4O)cc3O2)cc1O` (stereo partly drawn), the “activity change, negative = growth inhibition” value was inactive: 1.74%.
For `C[C@@H]1CN([C@@H](C)CO)C(=O)CCCn2nncc2CO[C@H]1CN(C)S(=O)(=O)c1ccc(Cl)cc1`, the “activity change, negative = growth inhibition” value was inactive: -6.22%.
With `CCOCCCNC(=O)c1ccccc1SCC` the “activity change, negative = growth inhibition” value was inactive: -6.22%.
For `O=C(Nc1cccc(S(=O)(=O)NC2=NCCC2)c1)c1cc(-c2ccccn2)nc2ccccc12`, the Potency was active: 23.1 µM.
In the case of `CCCN1C[C@H](CSC)C[C@@H]2c3cccc4[nH]cc(c34)C[C@H]21`, the Potency is reported as “inactive”.
For `CCOC(=O)C[C@H]1c2ccc(C(F)(F)F)cc2S(=O)(=O)N1C(C)C`, the “activity change, negative = growth inhibition” value was inactive: -15.9%.
In the case of `COc1ccccc1N1CCN(c2ccc(N3C(=O)CCC3=O)cc2[N+](=O)[O-])CC1`, the “activity change, negative = growth inhibition” value is reported as inactive: 1.62%.
For `CCc1ccc2oc(C(=O)Nc3nonc3CC)c(C)c2c1`, the “activity change, negative = growth inhibition” value was inactive: -23.2%.
